# Laboratory results reported in PubChem BioAssay (Tox21).
# Where “and” joins values, the source holds several entries; their conditions need not be identical. Equal values may be shown once. This list was built around the results that the source calls inconclusive (neither active nor inactive); the mix of calls is not that of the screen. For part of these data: A potency beside an inconclusive call is a rough fit, not a confirmed value. The source holds several records for some structures; these can differ, active in one and inactive in another. Calls of active or inactive are those of the source. Unless noted, calls follow the shape of the dose curve; as a rule, active = well fitted curve in the direction sought with a large enough effect in the repeat runs; inconclusive = weak or mixed curves; inactive = no such curve, though single readings can be large; an effect the other way counts as inactive or inconclusive.
# Key:
# [1] = qHTS assay to identify small molecule antagonists of the glucocorticoid receptor (GR) signaling pathway - cell viability counter screen (AID 720693); conditions: GR-bla HeLa viability, CellTiter-Glo luminescence, 18 h, with 5 nM dexamethasone present; viability change, negative = cytotoxic: at 58.5 µM (top of the series) unless noted; also: nearly all actives have a fitted effect of over 55% in size; also: potency is read from the fitted curve at half-maximal effect; as to viability change, negative = cytotoxic: % is scaled to controls: 0 for no effect and ±100 for the full control effect
# [2] = qHTS assay for identifying genotoxic compounds that show differential cytotoxicity against isogenic chicken DT40 cell lines with known DNA damage response pathways - Rev3 mutant cell line (AID 743014); conditions: chicken DT40 Rev3-/- viability, CellTiter-Glo, 40 h; activity, negative = cytotoxicity: at 68.4 µM (top of the series); also: potency is read from the fitted curve at half-maximal effect; nearly all actives have a fitted effect of over 55% in size
# [3] = qHTS assay to identify small molecule antagonists of the androgen receptor (AR) signaling pathway - cell viability counter screen (AID 743033; also: nearly all actives have a fitted effect of over 45% in size; also: potency is read from the fitted curve at half-maximal effect); conditions: AR-bla HEK293 viability, CellTiter-Glo luminescence, 16 h; activity change, negative = cytotoxicity: at 58.5 µM (top of the series) unless noted
# [4] = qHTS assay to identify small molecule antagonists of the androgen receptor (AR) signaling pathway using the MDA cell line - cell viability counter screen (AID 743041; also: nearly all actives have a fitted effect of over 45% in size; also: potency is read from the fitted curve at half-maximal effect); conditions: MDA-kb2 viability, CellTiter-Fluor, 16 h, cells co-treated with R1881 androgen agonist; viability change, negative = cytotoxic: at 70.3 µM (top of the series) unless noted
# In short: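 Viability counter screen run alongside the AR antagonist reporter: cells seeded 5 h before compound, R1881 added, 16 h incubation at 37C without CO2, fluorescent CellTiter-Fluor signal quantified.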
# [5] = qHTS assay to identify small molecule antagonists of the thyroid receptor (TR) signaling pathway - cell viability counter screen (AID 743064); conditions: GH3.TRE-Luc viability, CellTiter-Fluor, 24 h; activity change, negative = cytotoxic: at 70.3 µM (top of the series) unless noted; also: potency is read from the fitted curve at half-maximal effect; nearly all actives have a fitted effect of over 50% in size
# In short: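 Plate GH3.TRE-Luc cells; incubate 4 h at 37 °C; add compound, then T3 to 1 nM final; incubate 23.5 h; add CellTiter-Fluor; incubate 30 min at 37 °C, 5% CO2; read fluorescence.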
# [6] = tested on: thyroid hormone receptor (rat, GH3 cells); test: qHTS assay to identify small molecule agonists of the thyroid receptor (TR) signaling pathway (AID 743066; calls by dose curve; also: potency is read from the fitted curve at half-maximal effect; as to activation: % is scaled to controls: 0 for no effect and ±100 for the full control effect); conditions: GH3.TRE-Luc cells, TR agonist luciferase, 24 h
# [7] = qHTS assay to identify small molecule antagonists of the estrogen receptor alpha (ER-alpha) signaling pathway - cell viability counter screen (AID 743074; calls by dose curve;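 also: HEK293 cells carrying ER-alpha-UAS-bla reporter stimulated with 17beta-estradiol; potency is read from the fitted curve at half-maximal effect; nearly all actives have a fitted effect of over 45% in size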)
# [8] = qHTS assay to identify small molecule antagonists of the estrogen receptor alpha (ER-alpha) signaling pathway using the BG1 cell line - cell viability counter screen (AID 743081); conditions: BG1Luc4E2 viability, CellTiter-Fluor, 22 h; activity change, negative = cytotoxicity: at 70.3 µM (top of the series) unless noted;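 also: compound given together with 17beta-estradiol as the ER stimulus; nearly all actives have a fitted effect of over 45% in size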; also: potency is read from the fitted curve at half-maximal effect; as to activity change, negative = cytotoxicity: % is scaled to controls: 0 for no effect and ±100 for the full control effect
# [9] = target: Estrogen receptor (Homo sapiens) (UniProt P03372); test: qHTS assay to identify small molecule antagonists of the estrogen receptor alpha (ER-alpha) signaling pathway (AID 743069; active = well fitted curve in the direction sought with a large enough effect in the signal ratio in the repeat runs, not every such curve was filed as active; inconclusive = weak or mixed curves, or effect the other way; inactive = no such curve, though single readings can be large or run the other way; the % refers to the signal ratio; also: potency is read from the fitted curve at half-maximal effect; as to activity, negative = inhibition: % is scaled to controls: 0 for no effect and ±100 for the full control effect); conditions: HEK293 ER-alpha-UAS-bla, beta-lactamase ratio, antagonist mode; activity, negative = inhibition: at 69.4 µM (top of the series) unless noted
# UniProt P03372, sequence (P03372 whole entry, looked up): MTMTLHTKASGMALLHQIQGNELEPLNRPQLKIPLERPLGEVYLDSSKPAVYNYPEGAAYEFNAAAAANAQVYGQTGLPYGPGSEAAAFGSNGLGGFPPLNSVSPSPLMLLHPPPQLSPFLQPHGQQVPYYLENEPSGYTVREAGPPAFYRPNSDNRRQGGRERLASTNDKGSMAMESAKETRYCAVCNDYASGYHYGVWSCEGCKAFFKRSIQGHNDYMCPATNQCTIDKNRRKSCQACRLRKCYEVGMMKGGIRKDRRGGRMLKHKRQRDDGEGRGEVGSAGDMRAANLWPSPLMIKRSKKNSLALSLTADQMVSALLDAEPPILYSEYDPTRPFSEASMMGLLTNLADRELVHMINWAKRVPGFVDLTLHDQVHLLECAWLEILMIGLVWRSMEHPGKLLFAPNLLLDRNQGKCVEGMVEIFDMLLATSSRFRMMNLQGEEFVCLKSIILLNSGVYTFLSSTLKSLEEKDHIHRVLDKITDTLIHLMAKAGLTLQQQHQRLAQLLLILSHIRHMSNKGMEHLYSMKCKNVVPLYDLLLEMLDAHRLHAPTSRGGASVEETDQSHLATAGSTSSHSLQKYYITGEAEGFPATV
# In short: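 Estradiol-stimulated ER-alpha-UAS-bla HEK293 cells, 18 hr compound exposure at 37C. LiveBLAzer B/G substrate, 2 hr RT, fluorescence read.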
# [10] = target: Estrogen receptor (Homo sapiens) (UniProt P03372); test: qHTS assay to identify small molecule agonists of the estrogen receptor alpha (ER-alpha) signaling pathway (AID 743075; calls by dose curve;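 also: HEK293 GripTite cells with ER-alpha and UAS-driven beta-lactamase reporter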; also: potency is read from the fitted curve at half-maximal effect)
# Aromatase (Homo sapiens) = Aromatase (Homo sapiens) (UniProt P11511); test: qHTS assay to identify aromatase inhibitors (AID 743083); conditions: MCF-7 aro ERE, testosterone-driven ERE luciferase, 24 h; activity, negative = inhibition: at 70.3 µM (top of the series); also: potency is read from the fitted curve at half-maximal effect; nearly all actives have a fitted effect of over 55% in size
# UniProt P11511, sequence (P11511 whole entry, looked up): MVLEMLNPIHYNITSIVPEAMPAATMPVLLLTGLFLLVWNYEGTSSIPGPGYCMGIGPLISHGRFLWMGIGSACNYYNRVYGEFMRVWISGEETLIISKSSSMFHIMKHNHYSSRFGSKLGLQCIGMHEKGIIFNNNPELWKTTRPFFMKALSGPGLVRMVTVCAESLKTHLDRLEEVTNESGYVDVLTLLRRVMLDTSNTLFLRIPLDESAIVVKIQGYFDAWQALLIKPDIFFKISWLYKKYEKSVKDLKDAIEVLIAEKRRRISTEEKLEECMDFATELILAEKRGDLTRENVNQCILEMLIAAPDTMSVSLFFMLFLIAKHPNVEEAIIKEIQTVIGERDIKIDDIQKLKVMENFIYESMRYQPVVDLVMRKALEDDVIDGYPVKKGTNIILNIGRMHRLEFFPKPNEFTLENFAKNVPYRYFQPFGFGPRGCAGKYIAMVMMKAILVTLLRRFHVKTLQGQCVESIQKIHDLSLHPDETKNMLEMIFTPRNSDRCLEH
# [11] = qHTS assay for identifying genotoxic compounds that show differential cytotoxicity against isogenic chicken DT40 cell lines with known DNA damage response pathways - wild type cell line (AID 743012); conditions: DT40 wild type chicken cells viability, CellTiter-Glo, 40 h; activity change, negative = cytotoxicity: at 68.4 µM (top of the series) unless noted; also: potency is read from the fitted curve at half-maximal effect; nearly all actives have a fitted effect of over 60% in size
# In short: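 First, wild type DT40 cells were plated at 300 per well and equilibrated about 0.5 h at 37 C/5% CO2. Next, compounds in DMSO were added and exposure lasted 40 h. Finally, CellTiter-Glo was added for 30 min at room temperature and luminescence recorded.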
# [12] = target: Estrogen receptor (Homo sapiens) (UniProt P03372); test: qHTS assay to identify small molecule agonists of the estrogen receptor alpha (ER-alpha) signaling pathway using the BG1 cell line (AID 743079); conditions: BG1Luc4E2 cells, ERE-luciferase agonist, 22 h; activation: at 70.3 µM (top of the series) unless noted; also: nearly all actives have a fitted effect of over 20% in size; also: potency is read from the fitted curve at half-maximal effect
# [13] = qHTS assay to identify small molecule antagonists of the estrogen receptor alpha (ER-alpha) signaling pathway using the BG1 cell line (AID 743080; calls by dose curve;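 also: BG1 cells stimulated with 17beta-estradiol alongside compound; % is scaled to controls: 0 for no effect and ±100 for the full control effect; nearly all actives have a fitted effect of over 25% in size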); conditions: BG1Luc4E2 ERE-luciferase antagonist mode, luminescence; activity change, negative = inhibition: at 70.3 µM (top of the series) unless noted
# In short: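 BG1Luc4E2, endogenous ER-alpha, 4xERE-luc; 5 d charcoal-stripped FBS, phenol red free; 24 h plating; cpd + 17beta-estradiol 21.5 h, 37 C/5% CO2; CellTiter-Fluor viability 30 min, then ONE-Glo luciferase 30 min RT.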
# [14] = qHTS assay for identifying genotoxic compounds that show differential cytotoxicity against isogenic chicken DT40 cell lines with known DNA damage response pathways - Rad54/Ku70 mutant cell line (AID 743015); conditions: DT40 Rad54/Ku70 mutant viability, CellTiter-Glo, 40 h; activity change, negative = cytotoxicity: at 66.8 µM (top of the series); also: nearly all actives have a fitted effect of over 60% in size; also: potency is read from the fitted curve at half-maximal effect
# [15] = qHTS assay to identify small molecule antagonists of the thyroid receptor (TR) signaling pathway (AID 743065); also: potency is read from the fitted curve at half-maximal effect; nearly all actives have a fitted effect of over 55% in size
# In short: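 GH3.TRE-Luc rat pituitary cells carrying two TR response elements driving luciferase were plated for 4 h, given compound plus 1 nM T3 (final), and incubated 23.5 h at 37 C. ONE-Glo luminescence measured reporter inhibition; CellTiter-Fluor fluorescence tracked cytotoxicity.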
# [16] = activation: at 83.9 µM (top of the series) unless noted
# Tags tell the direction and shape of the fitted curve or compound fluorescence and quenching.
smiles,measurement,setting,value
Nc1ccc2cc3ccc(N)cc3nc2c1,Potency,[1],"active: 19 µM and inconclusive: 12.3 µM [cytotoxic, partial curve]"
same,Potency,[2],active: 2.98 µM and active: 2.73 µM
same,Potency,[3],"inconclusive: 13.4 µM [cytotoxic] and inconclusive: 3.47 µM [cytotoxic, full curve]"
same,Potency,[4],"inconclusive: 27.8 µM [rising, partial curve] and inconclusive: 17.2 µM [rising, partial curve]"
same,Potency,[5],"inconclusive: 26.6 µM [rising, partial curve] and inconclusive: 19.3 µM [rising, partial curve]"
same,activation,[6]; [16],inconclusive: -9.04% [phenotype inactive]
same,activation,[6]; at 83.9 µM (top of the series),inactive: -8.83%
same,Potency,[7],"inconclusive: 6.92 µM [cytotoxic, full curve, poor fit]"
same,Potency,[8],"inconclusive: 26.6 µM [rising, partial curve] and inconclusive: 19.3 µM [rising, partial curve]"
CCc1cc(C(N)=S)ccn1,Potency,[1],inactive
same,Potency,[2],"inconclusive: 17.1 µM [cytotoxic, full curve]"
same,Potency,[6]; [16],inactive
same,Potency,[7],"inconclusive: 49 µM [cytotoxic, partial curve, poor fit]"
same,Potency,[8],inactive
CCCCCCCC/C=C\CCCCCCCC(=O)N(C)CC(=O)O,Potency,[1],active: 49 µM
same,Potency,[2],"inconclusive: 19.3 µM [cytotoxic, full curve, poor fit]"
same,Potency,[3],inconclusive: 54.9 µM [cytotoxic]
same,Potency,[4],"inconclusive: 54.5 µM [cytotoxic, partial curve]"
same,Potency,[5],active: 30.6 µM
same,activation,[6]; [16],inconclusive: -7.69% [phenotype inactive]
same,Potency,[9],inconclusive: 21.9 µM
same,Potency,[7],"inconclusive: 54.9 µM [cytotoxic, single point]"
same,Potency,[10],inconclusive: 54.9 µM [single point]
same,Potency,Aromatase (Homo sapiens),"inconclusive: 68.6 µM [inhibitor, single point]"
CN1CCC(=C2c3ccccc3CCc3sccc32)CC1,Potency,[1],inactive
same,Potency,[11],active: 6.68 µM
same,activation,[6]; [16],inconclusive: -8.51% [phenotype inactive]
same,Potency,[9],inactive
same,Potency,[12],"inconclusive: 26.6 µM [inhibitor, partial curve]"
same,Potency,[13],inactive
same,Potency,[8],inactive
COC(=O)C1=C(C)NC(C)=C(C(=O)O[C@@H]2CCCN(Cc3ccccc3)C2)[C@@H]1c1cccc([N+](=O)[O-])c1,Potency,[1],"inconclusive: 26.8 µM [cytotoxic, partial curve, poor fit]"
same,Potency,[2],active: 21.1 µM
same,Potency,[3],"inconclusive: 5.35 µM [cytotoxic, full curve, poor fit]"
same,Potency,[4],"inconclusive: 29.8 µM [cytotoxic, partial curve, poor fit]"
same,Potency,[6]; [16],"inconclusive: 9.44 µM [inhibitor, partial curve, poor fit]"
same,Potency,[9],active: 26.8 µM [inhibitor]
same,Potency,[10],inactive
same,Potency,[8],"inconclusive: 1.88 µM [rising, partial curve, poor fit]"
CCCCOCCOC(=O)COc1nc(Cl)c(Cl)cc1Cl,Potency,[1],inactive
same,Potency,[2],"inconclusive: 17.2 µM [cytotoxic, single point]"
same,Potency,[3],inactive
same,Potency,[12],inactive
O=C(O)Cc1cc(I)c(Oc2ccc(O)c(I)c2)c(I)c1,Potency,[1],"inconclusive: 4.06 µM [cytotoxic, partial curve, poor fit] and inconclusive: 5.49 µM [cytotoxic, full curve]"
same,Potency,[2],"inconclusive: 11.4 µM [rising, partial curve, poor fit]"
same,Potency,[14],inactive and active: 54.5 µM
same,Potency,[5],"inconclusive: 68.6 µM [cytotoxic, single point]"
same,Potency,[7],"inconclusive: 3.89 µM [cytotoxic, full curve]"
CC(CCc1ccccc1)NCC(O)c1ccc(O)c(C(N)=O)c1 (configuration not stated),Potency,[1],"inconclusive: 0.0076 µM [rising, full curve, poor fit]"
same,Potency,[2],"inconclusive: 15.4 µM [cytotoxic, partial curve]"
same,Potency,[14],"inconclusive: 48.6 µM [cytotoxic, partial curve, poor fit]"
same,Potency,[4],inactive
same,Potency,[5],"inconclusive: 8.41 µM [cytotoxic, full curve, poor fit]"
same,Potency,[15],"inconclusive: 68.6 µM [inhibitor, single point]"
same,Potency,[7],"inconclusive: 26.8 µM [cytotoxic, single point]"
same,Potency,[12],"inactive and inconclusive: 54.5 µM [inhibitor, partial curve]"
same,Potency,[8],"inconclusive: 26.6 µM [cytotoxic, partial curve] and inconclusive: 21.7 µM [cytotoxic, full curve]"
